{
  "source": "PubChem BioAssay AID1460",
  "about": "(National Center for Advancing Translational Sciences (NCATS), 2008)",
  "note": "Hit rate of the full screen: of about 270,000 compounds, about 5,800 (2.1%) were called active. The shares of active, inactive and inconclusive entries below differ from those in the screen. Calls come from the whole dose curve; as a rule, active = well fitted inhibition curve with a large enough effect; inconclusive = small, poorly fitted or top-dose-only effect; inactive = flat fitted curve, though single readings scatter. Potencies of inconclusive entries are doubtful fits and often do not repeat. % is set by controls: 0 for no effect and ±100 for the full control effect; potency is the fitted concentration of half-maximal effect; tags give direction and shape of the fitted curve.",
  "data": [
    {"target": "Microtubule-associated protein tau (Homo sapiens) (UniProt P10636)", "sequence (P10636 whole entry, looked up)": "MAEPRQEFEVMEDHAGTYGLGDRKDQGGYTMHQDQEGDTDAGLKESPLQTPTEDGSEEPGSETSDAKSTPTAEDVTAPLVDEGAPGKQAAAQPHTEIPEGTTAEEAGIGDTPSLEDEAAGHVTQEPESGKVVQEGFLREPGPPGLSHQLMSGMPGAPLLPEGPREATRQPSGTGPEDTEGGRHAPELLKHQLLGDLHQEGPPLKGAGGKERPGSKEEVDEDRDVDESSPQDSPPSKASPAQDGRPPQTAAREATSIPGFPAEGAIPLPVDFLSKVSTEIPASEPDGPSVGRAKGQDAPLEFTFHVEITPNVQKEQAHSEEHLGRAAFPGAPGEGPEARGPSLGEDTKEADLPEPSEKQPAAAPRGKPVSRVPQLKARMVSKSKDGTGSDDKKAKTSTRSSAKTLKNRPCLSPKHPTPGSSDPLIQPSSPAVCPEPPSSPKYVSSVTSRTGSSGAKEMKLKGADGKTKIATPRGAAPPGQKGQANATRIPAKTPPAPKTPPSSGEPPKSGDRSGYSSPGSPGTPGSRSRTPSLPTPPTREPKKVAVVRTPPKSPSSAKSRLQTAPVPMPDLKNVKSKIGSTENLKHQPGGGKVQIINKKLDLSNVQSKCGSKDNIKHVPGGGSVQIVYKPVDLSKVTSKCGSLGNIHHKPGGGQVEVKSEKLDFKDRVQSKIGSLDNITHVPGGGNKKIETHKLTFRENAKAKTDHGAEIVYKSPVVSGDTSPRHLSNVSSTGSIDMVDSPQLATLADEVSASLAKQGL", "assay": "qHTS for Inhibitors of Tau Fibril Formation, Thioflavin T Binding; note: nearly all actives have a fitted effect of over 55% in size", "settings": "recombinant tau K18 P301L, heparin-induced fibrillization, ThT fluorescence; series mostly up to 57.4 µM; activity, negative = inhibition: at the top concentration", "procedure,_shortened": "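Using a mix of unlabeled (15 uM) and Alexa 594-labeled (0.24 uM) tau K18 P301L, heparin-triggered fibrillization over 6 hr at 37 C was scored by ThT fluorescence.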", "values": [
      {"smiles": "C=CCn1ccc(=NC=C(C#N)C#N)c2ccccc21", "Potency": "inconclusive: 22.4 µM [inhibitor, partial curve]"},
      {"smiles": "Cc1ccc(C(=O)OCc2cc(=O)n3nc(-c4cccs4)sc3n2)cc1", "Potency": "inconclusive: 7.08 µM [inhibitor, full curve]"},
      {"smiles": "O=C1C2CC=CCC2C(=O)N1c1ccc(NCCc2ccc(Cl)cc2)c([N+](=O)[O-])c1", "note": "(centres undefined)", "Potency": "inconclusive: 8.91 µM [inhibitor, partial curve]"},
      {"smiles": "Cc1ccccc1C(=O)OCc1cc(=O)n2nc(C3CC3)sc2n1", "Potency": "inconclusive: 2 µM [inhibitor, partial curve]"},
      {"smiles": "Nc1nc(-c2ccccc2)c(-c2ccc([N+](=O)[O-])cc2)s1", "Potency": "inconclusive: 7.94 µM [inhibitor, partial curve]"},
      {"smiles": "CCc1ccccc1NC(=O)c1ccc(NCCc2ccccc2)c([N+](=O)[O-])c1", "Potency": "inconclusive: 1.12 µM [inhibitor, partial curve, poor fit]"},
      {"smiles": "CSc1ccc(NC(=O)N2CC=C(n3c(=O)[nH]c4ccccc43)CC2)cc1", "Potency": "inconclusive: 12.6 µM [inhibitor, partial curve]"},
      {"smiles": "CCOC(=O)c1ccc(-n2c(CN(CC)CC)nc3ccc([N+](=O)[O-])cc3c2=O)cc1", "Potency": "inconclusive: 39.8 µM [inhibitor, single point]"},
      {"smiles": "Oc1ccc2ccccc2c1/C=N/Nc1nnc(-c2ncc[nH]2)c2ccccc12", "Potency": "active: 3.98 µM"},
      {"smiles": "COc1ccc(CNc2nc3ccccc3n2CCN2CCOCC2)cc1", "activity, negative = inhibition": "inactive: -3.56%"},
      {"smiles": "Cc1ccc(-c2nc3cccnc3o2)cc1NC(=O)COc1ccc(Cl)cc1C", "Potency": "inconclusive: 3.98 µM [inhibitor, full curve]"},
      {"smiles": "COc1ccc(Cc2nnc(SCC(=O)N3CCN(c4ccccc4)CC3)o2)cc1", "Potency": "inconclusive: 12.6 µM [inhibitor, partial curve]"},
      {"smiles": "Cc1ccc(S(=O)(=O)Nc2cc3c(cc2Cl)n(C)c(=O)c(=O)n3C)cc1", "Potency": "inconclusive: 14.1 µM [inhibitor, partial curve]"},
      {"smiles": "NC(N)=Nc1nc(C2COc3ccccc3O2)cs1", "note": "(centres undefined)", "Potency": "inconclusive: 20 µM [inhibitor, single point]"},
      {"smiles": "CCOc1ccc2nc(N3CCC(C(=O)Nc4c(C)cccc4C)CC3)sc2c1", "Potency": "inconclusive: 1 µM [inhibitor, full curve]"},
      {"smiles": "Cn1ccnc1SCC(=O)Nc1ccc2c(c1)COC2=O", "Potency": "inconclusive: 14.1 µM [inhibitor, partial curve]"},
      {"smiles": "COc1cccc(-c2cnc(NCc3ccccc3Cl)n2C)c1", "Potency": "inconclusive: 28.2 µM [inhibitor, partial curve]"},
      {"smiles": "COc1ccc(C(c2c[nH]c3ccccc23)c2c[nH]c3ccccc23)cc1O", "Potency": "inconclusive: 28.2 µM [inhibitor, partial curve]"},
      {"smiles": "Cc1coc2cc3oc(=O)c(CC(=O)NCc4ccccc4)c(C)c3cc12", "activity, negative = inhibition": "inactive: 5.9%"},
      {"smiles": "Cc1ccc(S(=O)(=O)N2CCC(=O)N(CCOCc3ccc(C(F)(F)F)cc3)CC2)cc1", "Potency": "inconclusive: 14.1 µM [inhibitor, partial curve, poor fit]"},
      {"smiles": "CC(=O)OC1=Cc2c(ccc3ccc(=O)oc23)OC1(C)C", "activity, negative = inhibition": "inactive: -16%"},
      {"smiles": "COc1cccc(/C=C2\\SC(=S)N(C(C(=O)O)c3ccccc3)C2=O)c1OC", "note": "(centres undefined)", "Potency": "inconclusive: 31.6 µM [inhibitor, partial curve]"},
      {"smiles": "Cc1cccc(N2CCN(C(=O)C3CCN(S(=O)(=O)c4ccc5c(c4)oc(=O)n5C)CC3)CC2)c1C", "activity, negative = inhibition": "inactive: -6.7%"},
      {"smiles": "O=C1C2CC=CCC2C(=O)N1Cc1ccccc1", "note": "(centres undefined)", "activity, negative = inhibition": "inactive: -10.9%"},
      {"smiles": "CCCc1nn2c(C)c(-c3ccccc3)nc2s1", "Potency": "inconclusive: 3.55 µM [inhibitor, full curve]"},
      {"smiles": "Cc1nc(-c2coc3cc(OCC(=O)O)ccc3c2=O)cs1", "Potency": "inconclusive: 31.6 µM [inhibitor, single point]"},
      {"smiles": "CC#CCN1c2ccccc2[C@]23C[C@@H](C(=O)OC)N(S(=O)(=O)c4c(C)noc4C)C2=NC(C(=O)OC)=C(C(=O)OC)[C@H]13", "Potency": "inconclusive: 0.0708 µM [activator, full curve, poor fit]"},
      {"smiles": "CCCCOc1ccc(CNC(=O)c2ccc(NC(=O)N3CCSc4ncccc43)cc2)cc1", "Potency": "inconclusive: 44.7 µM [activator, single point]"},
      {"smiles": "C(=N\\Nc1nc2ccccc2s1)/c1ccco1", "Potency": "inconclusive: 14.1 µM [inhibitor, partial curve]"},
      {"smiles": "Cn1ncc(S(=O)(=O)Cc2ccccc2)c(Cl)c1=O", "Potency": "inconclusive: 25.1 µM [inhibitor, partial curve, poor fit]"},
      {"smiles": "Oc1ccc(Cl)cc1C1=NNC(c2cc(Br)cc3c2OCOC3)C1", "note": "(centres undefined)", "Potency": "inconclusive: 22.4 µM [inhibitor, single point]"},
      {"smiles": "Cc1cccc(N2C(=O)c3cccc4c(N(C)CCO)ccc(c34)C2=O)c1", "Potency": "inconclusive: 28.2 µM [inhibitor, single point]"},
      {"smiles": "COc1ccc(/C(C)=N/NC(=S)Nc2cc(C)ccc2C)cc1", "Potency": "inconclusive: 17.8 µM [inhibitor, partial curve]"},
      {"smiles": "Nn1cnnc1N/N=C/c1cc([N+](=O)[O-])c(Cl)cc1Cl", "Potency": "inconclusive: 14.1 µM [inhibitor, partial curve]"},
      {"smiles": "Cc1cccc(C2C3=C(CCCC3=O)N=C3c4ccccc4C(=O)C32)c1", "note": "(centres undefined)", "Potency": "active: 14.1 µM"},
      {"smiles": "O=S(=O)(c1ccccc1)c1nc(-c2ccco2)oc1NCc1ccco1", "activity, negative = inhibition": "inactive: -2.3%"},
      {"smiles": "CC1CCCN(C(=O)C2CCN(CC(C)c3ccccc3)CC2)C1", "note": "(centres undefined)", "activity, negative = inhibition": "inactive: -2.46%"},
      {"smiles": "COc1ccc(OC)c(N/C(C)=C/C(=O)c2ccccc2)c1", "Potency": "inconclusive: 22.4 µM [inhibitor, partial curve]"},
      {"smiles": "O=[N+]([O-])c1ccc(Nc2c3ccccc3nc3ccccc23)cc1", "Potency": "active: 10 µM"},
      {"smiles": "C=C1c2ccccc2NC(=O)N1c1ccc(OC)cc1", "Potency": "inconclusive: 25.1 µM [inhibitor, partial curve, poor fit]"},
      {"smiles": "O=C(O)CNC(=O)C(Cc1ccccc1)NC(=O)OCc1ccccc1", "note": "(centres undefined)", "activity, negative = inhibition": "inactive: -8.54%"},
      {"smiles": "Nc1ccc2nc(C3CCCCC3)[nH]c2c1", "Potency": "inconclusive: 2.82 µM [inhibitor, full curve]"},
      {"smiles": "Cc1ccc(OCCCCNC(C)(C)C)c([N+](=O)[O-])c1", "activity, negative = inhibition": "inactive: 8.22%"},
      {"smiles": "O=C(Nc1nnc(C(F)(F)F)s1)C1COc2ccccc2O1", "note": "(centres undefined)", "activity, negative = inhibition": "inactive: 0.826%"},
      {"smiles": "CCOc1ccccc1Nc1nc(-c2sc(NC(=O)c3ccc([N+](=O)[O-])cc3)nc2C)cs1", "Potency": "active: 3.55 µM"},
      {"smiles": "Cc1ccc(OCc2n[nH]c(=S)n2C2CCCCC2)cc1", "activity, negative = inhibition": "inactive: -20%"},
      {"smiles": "O=C(C1=C[C@H](c2ccc3c(c2)OCO3)C[C@H](OCCCCO)O1)N1CCOCC1", "Potency": "inconclusive: 14.1 µM [inhibitor, single point]"},
      {"smiles": "O=[N+]([O-])c1cccc(C(=S)N2CCN(c3ccccc3F)CC2)c1", "activity, negative = inhibition": "inactive: -9.34%"},
      {"smiles": "CCOc1ccc(C(=O)NCCc2ccc3c(c2)OCCO3)cc1", "Potency": "inconclusive: 10 µM [inhibitor, partial curve]"},
      {"smiles": "COCCCNC(=S)NCCc1ccc(F)cc1", "activity, negative = inhibition": "inactive: -8.19%"},
      {"smiles": "O=C1C2=CC[C@H]3C(=O)N(Cc4ccc5c(c4)OCO5)C(=O)[C@@H]3[C@@H]2[C@H](O)[C@@H]2O[C@H]12", "Potency": "inconclusive: 3.16 µM [inhibitor, partial curve]"},
      {"smiles": "O=C(CNc1cccc2ccccc12)N/N=C/c1ccc([N+](=O)[O-])cc1", "Potency": "inconclusive: 5.01 µM [inhibitor, partial curve]"},
      {"smiles": "CC(C)c1ccc(OCC(O)Cn2cnc3ccccc32)cc1", "note": "(centres undefined)", "Potency": "inconclusive: 35.5 µM [inhibitor, partial curve]"},
      {"smiles": "O=C(CCCC(=O)OCC(=O)c1cccs1)Nc1ccc(Oc2ccccc2)cc1", "Potency": "inconclusive: 17.8 µM [inhibitor, single point]"},
      {"smiles": "N#CC1=C2SCN(Cc3ccco3)CN2C(=O)CC1c1ccccc1F", "note": "(centres undefined)", "Potency": "active: 17.8 µM"},
      {"smiles": "CCC(=O)N1CCc2cc(S(=O)(=O)N(C)c3cccc(C)c3)ccc21", "activity, negative = inhibition": "inactive: 2.14%"},
      {"smiles": "O=C(/C=C/c1ccccc1)N1CCN(Cc2cc(=O)n3nc(-c4ccccc4)sc3n2)CC1", "Potency": "inconclusive: 15.8 µM [inhibitor, partial curve, poor fit]"},
      {"smiles": "CCCCCC[N+](C)(C)CCSSCC[N+](C)(C)CCCCCC", "Potency": "active: 7.08 µM"},
      {"smiles": "CCN(CC)CCNC(=O)c1cc2c(=O)[nH]c3ccc(C)cc3c2s1", "activity, negative = inhibition": "inactive: -7.2%"},
      {"smiles": "O=C(CSc1ccc(Cl)cc1)Nc1ccc(-c2nc3ccccc3[nH]2)cc1", "Potency": "inconclusive: 12.6 µM [activator, partial curve]"},
      {"smiles": "Cn1c(=N)n(CC(=O)c2ccc(Br)s2)c2ccccc21", "activity, negative = inhibition": "inactive: 6.02%"},
      {"smiles": "COc1ccccc1CNC(=O)Cn1ncc2c(C)n(Cc3ccccc3Cl)c(C)c2c1=O", "Potency": "inconclusive: 5.01 µM [inhibitor, partial curve, poor fit]"},
      {"smiles": "Cc1ccc(-c2ccc(CCC(=O)O)n2-c2ccc(C(C)C)cc2)cc1", "Potency": "inconclusive: 39.8 µM [inhibitor, single point]"},
      {"smiles": "Cc1ccc(NC(=O)CSc2nnc(-c3ccccn3)n2N)c(Br)c1", "Potency": "inconclusive: 2.24 µM [inhibitor, full curve, poor fit]"},
      {"smiles": "CC(=O)c1ccc(NC(=O)Nc2ccccc2)cc1", "Potency": "inconclusive: 11.2 µM [inhibitor, partial curve]"},
      {"smiles": "CCN(c1ccc(C)cc1)S(=O)(=O)c1nnc(NC(=O)c2cccs2)s1", "activity, negative = inhibition": "inactive: 5.16%"},
      {"smiles": "O=C(O)CCCN1C(=O)C(=O)/C(=C(/O)c2ccccc2)C1/C=C/c1ccccc1", "note": "(centres undefined)", "activity, negative = inhibition": "inactive: -11%"},
      {"smiles": "CCOC(=O)CN(C(=O)CSc1nnc2c(n1)[nH]c1ccc(OC)cc12)c1ccc(F)cc1", "Potency": "inconclusive: 20 µM [inhibitor, partial curve]"},
      {"smiles": "CCOc1ccccc1NC(=O)N1CCN(S(=O)(=O)c2ccc3c(ccn3C)c2)CC1", "activity, negative = inhibition": "inactive: -7.63%"}
    ]}
  ]
}
